From the supplement of paper PMC4604168 (melanoma cell lines)
The list shows a part of the results. Single values are uncertain, as repeats are few or missing.

Key:
Assay in all cases: cell count relative to DMSO control; melanoma cells; higher = more viable cells
Details in all cases: library dose: standard library concentration; 72 h
A101D = tested on: A101D
A2058 = tested on: A2058
A375 = tested on: A375
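Note: cells treated in 1,536-well plates, then fixed and DAPI-stained, with nuclei counted from automated high-throughput microscope images.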

C[As](C)SC[C@H](NC(=O)CC[C@H](N)C(=O)O)C(=O)NCC(=O)O [Darinaparsin] + C/C(O)=C(\C#N)C(=O)Nc1cc(Br)ccc1Br [LFM-A13] (first compound 2 µM, partner dose 10 µM)
cell count (A101D): 105%
cell count (A2058): 90.3%
cell count (A375): 75.6%

C[As](C)SC[C@H](NC(=O)CC[C@H](N)C(=O)O)C(=O)NCC(=O)O [Darinaparsin] + COc1cc(N2CCC(N3CCN(C)CC3)CC2)ccc1Nc1ncc(Cl)c(Nc2ccccc2S(=O)(=O)C(C)C)n1 [NVP-TAE684] (first compound 2 µM, partner dose 0.4 µM)
cell count (A101D): 69.6%
cell count (A2058): 49.5%
cell count (A375): 72.7%

Cn1cc(C2=C(c3cn(C4CCN(Cc5ccccn5)CC4)c4ccccc34)C(=O)NC2=O)c2ccccc21 [Enzastaurin] + C[As](C)SC[C@H](NC(=O)CC[C@H](N)C(=O)O)C(=O)NCC(=O)O [Darinaparsin] (first compound 4 µM, partner dose 2 µM)
cell count (A101D): 41.4%
cell count (A2058): 59.1%
cell count (A375): 93.7%

C[C@]12O[C@H](C[C@]1(O)CO)n1c3ccccc3c3c4c(c5c6ccccc6n2c5c31)CNC4=O [Lestaurtinib] + C[C@@H]1CCN(C(=O)CC#N)C[C@@H]1N(C)c1ncnc2[nH]ccc12 [CP690550] (first compound 0.02 µM, partner dose 5 µM)
cell count (A101D): 68.9%
cell count (A2058): 103%
cell count (A375): 108%

Cn1cc(C2=C(c3cn(C4CCN(Cc5ccccn5)CC4)c4ccccc34)C(=O)NC2=O)c2ccccc21 [Enzastaurin] + CC(=O)O[C@@]12CO[C@@H]1C[C@H](O)[C@@]1(C)C(=O)[C@H](O)C3=C(C)[C@@H](OC(=O)[C@H](O)[C@@H](NC(=O)OC(C)(C)C)c4ccccc4)C[C@@](O)([C@@H](OC(=O)c4ccccc4)[C@H]21)C3(C)C [Docetaxel] (first compound 4 µM, partner dose 0.0005 µM)
cell count (A101D): 55.2%
cell count (A2058): 10.1%
cell count (A375): 69.1%

N.N.[Cl][Pt][Cl] [cisplatin] + CN(NC(=O)CC(=O)NN(C)C(=S)c1ccccc1)C(=S)c1ccccc1 [STA4783] (first compound 8 µM, partner dose 0.03 µM)
cell count (A101D): 72.5%
cell count (A2058): 98.6%
cell count (A375): 99.2%

C[C@]12O[C@H](C[C@]1(O)CO)n1c3ccccc3c3c4c(c5c6ccccc6n2c5c31)CNC4=O [Lestaurtinib] + NC(=O)Nc1cc(-c2cccc(F)c2)sc1C(=O)N[C@H]1CCCNC1 [AZD7762] (first compound 0.02 µM, partner dose 0.1 µM)
cell count (A101D): 60.8%
cell count (A2058): 83.3%
cell count (A375): 53.2%

Cn1cc(C2=C(c3cn(C4CCN(Cc5ccccn5)CC4)c4ccccc34)C(=O)NC2=O)c2ccccc21 [Enzastaurin] + Cn1sc(=O)n(Cc2ccccc2)c1=O [TDZD-8] (first compound 4 µM, partner dose 2 µM)
cell count (A101D): 55.1%
cell count (A2058): 83.2%
cell count (A375): 116%

N.N.[Cl][Pt][Cl] [cisplatin] + C#Cc1cccc(Nc2ncnc3cc(OCCOC)c(OCCOC)cc23)c1 [erlotinib] (first compound 8 µM, partner dose 4 µM)
cell count (A101D): 77%
cell count (A2058): 120%
cell count (A375): 124%

C[C@]12O[C@H](C[C@]1(O)CO)n1c3ccccc3c3c4c(c5c6ccccc6n2c5c31)CNC4=O [Lestaurtinib] + C[C@]1(O)C[C@@H](c2nc(-c3ccc4ccc(-c5ccccc5)nc4c3)c3c(N)nccn32)C1 [OSI906] (first compound 0.02 µM, partner dose 2 µM)
cell count (A101D): 70.4%
cell count (A2058): 81.3%
cell count (A375): 65.8%

Cn1cc(C2=C(c3cn(C4CCN(Cc5ccccn5)CC4)c4ccccc34)C(=O)NC2=O)c2ccccc21 [Enzastaurin] + Nc1nc(F)nc2c1ncn2[C@@H]1O[C@H](CO)[C@@H](O)[C@@H]1O [fludarabine] (first compound 4 µM, partner dose 1 µM)
cell count (A101D): 29.6%
cell count (A2058): 70%
cell count (A375): 34.3%

C[As](C)SC[C@H](NC(=O)CC[C@H](N)C(=O)O)C(=O)NCC(=O)O [Darinaparsin] + COCC[n+]1c2c(n(Cc3cnccn3)c1C)C(=O)c1ccccc1C2=O [YM155] (first compound 2 µM, partner dose 0.002 µM)
cell count (A101D): 60.2%
cell count (A2058): 14.4%
cell count (A375): 67.1%

C[As](C)SC[C@H](NC(=O)CC[C@H](N)C(=O)O)C(=O)NCC(=O)O [Darinaparsin] + O=C(CCCCCCC(=O)Nc1ccccc1)NO [vorinostat] (first compound 2 µM, partner dose 0.4 µM)
cell count (A101D): 76.1%
cell count (A2058): 96.9%
cell count (A375): 106%

Cn1cc(C2=C(c3cn(C4CCN(Cc5ccccn5)CC4)c4ccccc34)C(=O)NC2=O)c2ccccc21 [Enzastaurin] + Cc1cc(Nc2cc(N3CCN(C)CC3)nc(/C=C/c3ccccc3)n2)n[nH]1 [ENMD2076] (first compound 4 µM, partner dose 0.2 µM)
cell count (A101D): 33.4%
cell count (A2058): 57%
cell count (A375): 82.5%
